# Assay results taken from PubChem BioAssay AID504339 (National Center for Advancing Translational Sciences (NCATS), 2011).
# Out of some 390,000 compounds screened, about 17,000 (4.4%) were called active. Inconclusive means that the source gave no clear call. Such entries were picked first, then a sample of the others. The call rests on the fitted dose curve; in most records, active means well fitted inhibition curve with a large enough effect; inconclusive means small, poorly fitted or top-dose-only effect; inactive means no such curve, though single readings can be large or run the other way. Where the call is inconclusive, the potency comes from a doubtful curve fit.
# Target: Lysine-specific demethylase 4A (Homo sapiens) (UniProt O75164)
# Experiment: qHTS Assay for Inhibitors of JMJD2A-Tudor Domain; further: nearly all actives have a fitted effect of over 50% in size
# Conditions: AlphaScreen JMJD2A-Tudor / H3K4me3 peptide binding; activity change, negative = inhibition: at 114 µM (top of the series)
# On the % scale 0 is the no-effect control and ±100 the full control effect; potency means the concentration at half of the fitted maximal effect; tags describe the fitted curve by direction and shape.
# Sequence of UniProt O75164 (O75164 whole entry, looked up, the tested form may be a part): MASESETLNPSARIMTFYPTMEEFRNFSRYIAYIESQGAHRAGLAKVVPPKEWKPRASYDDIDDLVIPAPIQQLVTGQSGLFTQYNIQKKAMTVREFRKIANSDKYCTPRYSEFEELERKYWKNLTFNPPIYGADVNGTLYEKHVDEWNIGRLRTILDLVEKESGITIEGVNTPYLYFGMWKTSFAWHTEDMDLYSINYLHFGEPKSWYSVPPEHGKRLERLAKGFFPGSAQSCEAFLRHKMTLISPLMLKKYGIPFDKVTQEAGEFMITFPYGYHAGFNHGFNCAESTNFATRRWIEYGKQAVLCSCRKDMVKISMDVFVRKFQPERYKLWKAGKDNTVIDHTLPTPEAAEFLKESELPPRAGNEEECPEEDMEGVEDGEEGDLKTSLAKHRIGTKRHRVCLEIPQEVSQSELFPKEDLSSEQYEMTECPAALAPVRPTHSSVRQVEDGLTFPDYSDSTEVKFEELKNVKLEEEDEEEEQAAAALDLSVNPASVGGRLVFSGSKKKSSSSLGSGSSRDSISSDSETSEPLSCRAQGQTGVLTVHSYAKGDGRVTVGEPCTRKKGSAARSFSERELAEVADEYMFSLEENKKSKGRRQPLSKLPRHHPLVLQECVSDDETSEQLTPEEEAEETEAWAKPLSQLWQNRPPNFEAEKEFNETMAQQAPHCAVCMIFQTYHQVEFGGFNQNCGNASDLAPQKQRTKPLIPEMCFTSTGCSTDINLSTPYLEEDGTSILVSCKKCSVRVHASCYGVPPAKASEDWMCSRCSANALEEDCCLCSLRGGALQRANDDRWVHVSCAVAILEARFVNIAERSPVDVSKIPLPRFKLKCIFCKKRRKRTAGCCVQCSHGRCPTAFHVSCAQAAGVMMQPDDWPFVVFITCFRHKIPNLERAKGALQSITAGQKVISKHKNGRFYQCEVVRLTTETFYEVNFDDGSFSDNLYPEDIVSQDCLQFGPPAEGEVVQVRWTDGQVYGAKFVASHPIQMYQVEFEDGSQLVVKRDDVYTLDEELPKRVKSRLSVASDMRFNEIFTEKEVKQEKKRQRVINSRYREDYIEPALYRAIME
SMILES,Potency,"activity change, negative = inhibition"
CCn1cc(CCCC(=O)NCc2ccccc2OC)c2ccccc21,"inconclusive: 14.1 µM [inhibitor, full curve]",–
O=c1c(-c2ccccc2)[n+]([O-])c2ccccc2n1O,"inconclusive: 17.8 µM [inhibitor, full curve]",–
CC(=O)N(c1ccc(Cl)cc1)C1SC(=O)N(c2ccc(C)cc2)C1=O (stereo unspecified),–,inactive: -9.52%
Cc1ccc(C(=O)Nc2nnc(S(=O)(=O)N3c4ccccc4CC3C)s2)cc1 (stereo unspecified),–,inactive: -16.1%
Cc1nc2ccc([N+](=O)[O-])cc2c(=O)n1Cc1ccc(Br)cc1,"inconclusive: 56.2 µM [inhibitor, partial curve]",–
COc1cccc(CN2CCC(C(=O)Nc3ccc(-c4cccc(C)c4)cc3)CC2)c1O,"inconclusive: 28.2 µM [inhibitor, partial curve]",–
COc1ccc(-c2nc3scc(-c4ccc(OC)c(OC)c4)c3c(=O)o2)cc1,"inconclusive: 56.2 µM [inhibitor, partial curve]",–
COc1ccccc1N1CCN(C(=O)/C=C/c2cccc([N+](=O)[O-])c2)CC1,"inconclusive: 50.1 µM [inhibitor, partial curve]",–
CCOc1cc(N2CCOCC2)c(OCC)cc1NC(=O)Cc1cccc(OC)c1,"inconclusive: 56.2 µM [inhibitor, partial curve]",–
O=Cc1ccc(Sc2nnc(-c3ccccc3)o2)c([N+](=O)[O-])c1,"inconclusive: 50.1 µM [inhibitor, partial curve]",–
N/C(=N/OS(=O)(=O)c1ccc([N+](=O)[O-])cc1)c1ccncc1,–,inactive: -6.9%
Cc1ccc(-c2nc3ccccn3c2Nc2ccccc2C)s1,"inconclusive: 17.8 µM [inhibitor, full curve, poor fit]",–
CC1CN(C(=O)CCNC(=O)c2ccc(Br)cc2)CC(C)O1 (stereo unspecified),–,inactive: 8.84%
Cc1occc1C(=O)NNC(=O)c1cccc(F)c1,–,inactive: -13.5% [at 11.4 µM]
Cc1c(C(=O)N2CCCCCC2)c(S(=O)(=O)NCc2ccc(Br)cc2)c(C)n1C,–,inactive: -34%
COc1ccc(C(C(=O)NC(C)(C)C)N(C(=O)CNC(=O)c2cccs2)c2cccnc2)cc1OC (stereo unspecified),–,inactive: -2.47%
Cc1ccccc1C(=O)NC1CCCCCCC1,–,inactive: -6.89%
N=C1S/C(=C\c2ccc(-c3cccc(Cl)c3)o2)C(=O)N1c1nccs1,"inconclusive: 2.82 µM [inhibitor, full curve, poor fit]",–
COc1cccc(CNCC2CCCO2)c1 (stereo unspecified),–,inactive: 5.57%
Cc1ccc(NC(=O)Cn2nnc(C(=O)NCc3cccs3)c2N)c(C)c1,–,inactive: -26.4%
CCCOc1ccc(CNC(=O)Cn2ncn3c(cc4sc(CC)cc43)c2=O)cc1,–,inactive: 5.45%
